Test results published in PMC12136788.
The other results are listed elsewhere or left out.

T1: UNK ZnF1-3 (human, UniProt Q9C0B0 31-174)
T1 sequence: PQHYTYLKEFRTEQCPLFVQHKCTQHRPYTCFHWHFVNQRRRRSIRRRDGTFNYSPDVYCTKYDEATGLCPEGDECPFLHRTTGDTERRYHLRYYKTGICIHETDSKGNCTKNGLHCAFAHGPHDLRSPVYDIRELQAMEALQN

B1: chr7:56126341:56126342:+_ENSG00000146731_ENST00000540286|hu_mus|hu_hu_hu_mus_True|68_68 (ssRNA)
RNA: GGGAGUUCUACAGUCCGACGAUCCAUGUUUCUCCUCUUGGCUCUGCGCAGAGCUACGAUCCCUUCUUUUGAAAGAGCAUCUAAGGAAAAGGGGUCAAUCCCCUUUUGAUUAAUAACGACAAAUCCUUUAUCUGAGUCACCACACAACAGAGGAUUGAGCAUCA
B2: chr8:79514634:79514635:+_ENSG00000171033_ENST00000352966|hu_hu|FALSE|FALSE (ssRNA)
RNA: GGGAGUUCUACAGUCCGACGAUCACUGUGUUUUAAAAAAGGGUGUUCUAUCCUGUGUACACCACCACAGUAUGGAAAACUAAAAUGAAAAGACAGCCCUUUUAAAAAUGAGUGGUAUAAAAAUUCACAGUAAUGUACAUCAUUCAACAGAGGAUUGAGCAUCA
B3: chr2:217001844:217001845:+_ENSG00000079246_ENST00000392132|hu_hu|hu_hu_hu_mus_False|28_28 (ssRNA)
RNA: GGGAGUUCUACAGUCCGACGAUCACCAACUUGAGGAUUAGAUCUUUUGUCAUAAGCAUAUCGGACGAUGGCGACCAUGUUUAACUCAUCCAAAGCAUGAACGAGAGAGGAAAGUGCAACAGCUGCCGCCUCAUCAUCCUUUGCCAACAGAGGAUUGAGCAUCA
B4: chr9:14812383:14812384:-_ENSMUSG00000031934_ENSMUST00000164273|mus_mus|mus_mus_mus_hu_True|48_88 (ssRNA)
RNA: GGGAGUUCUACAGUCCGACGAUCAUAGCCCAGGUAGAUACACGCUAACAGUAUAACGAUGAGUGUCAGCAGGCGGCAGCUAAUGUAUUUCAUGAUUAAAUUAUUAGAAUUUUUCUUUGUCUUCAAGUACUGCUCCACAAUUGGCAACAGAGGAUUGAGCAUCA
B5: chr15:93570553:93570554:+_ENSG00000173575_ENST00000394196|hu_hu|motif|central (ssRNA)
RNA: GGGAGUUCUACAGUCCGACGAUCUCUAAGGCCAUAGUGUAUCAUGUCAACCCUUGUUCACGUGCAGGUUUUAGGUGAUGCGGACUCCCUCUUUCUCAACCUGUUAUUUCUACCAACAAUGAAAUCUUUCAAAGCCAGACUCCACAACAGAGGAUUGAGCAUCA
B6: chr2:198351390:198351391:-_ENSG00000144381_ENST00000345042|hu_hu|hu_hu_hu_mus_False|8_58 (ssRNA)
RNA: GGGAGUUCUACAGUCCGACGAUCUCAUUCCCACCCUCCACAGAAAGGCUGCUUCUGAACUCUCAUGUGGUGACACAGCACUAAAAUCCUGAUGCUCACAGAACAGUAGAGAUGCCUCAGUGAUUUAUUAAGUUGAAAGGACACCAACAGAGGAUUGAGCAUCA
B7: chr14:55655841:55655842:-_ENSG00000126787_ENST00000247191|hu_hu|motif|central (ssRNA)
RNA: GGGAGUUCUACAGUCCGACGAUCUUCCUUAUGUCUAUUUUCUUUCUGAGACAGUGAUUUCCUAUGAGCAAUUUUAGUUCGGAUCAUUUCAGUACUUAUAUCCUUCCUGUGUCGACUGGCAAAAUGUGAUGAAGACAUCCUGAGCAACAGAGGAUUGAGCAUCA
B8: chr8:28149726:28149727:+_ENSMUSG00000031483_ENSMUST00000033873|mus_mus|motif|central (ssRNA)
RNA: GGGAGUUCUACAGUCCGACGAUCCUGGAGCUAUUAACCCAAGGUAAUUUAUCUAGUGGUAUCAUUUAUGGAAUAAUUACGGUAACAAGAAUCAUUUCUCAGUUAUAAAGGCUCAUUAAUGCCCUUGGGGCACACUGAAAAAAUCAACAGAGGAUUGAGCAUCA
B9: 58339928_58340048_839_CDS_ENSMUSG00000079104_ENSMUST00000139049|mouse|control|control (ssRNA)
RNA: GGGAGUUCUACAGUCCGACGAUCCUUCACAUCUCCUACUAGUACCAUGCGGUCUACUUCAUUGGCCUUCUUCCGUUCCUUGUGAAUCAAAGCAAAAUCCACAUUCAACCGGUCUGCAAUGGAGGUCACUCUCUUGGCUCCACCCAACAGAGGAUUGAGCAUCA
B10: chr11:61557309:61557310:-_ENSG00000134825_ENST00000537328|hu_hu|FALSE|FALSE (ssRNA)
RNA: GGGAGUUCUACAGUCCGACGAUCGAUGCCAACCCAGAGCAGCAGGAAGAGGACUCCAAAGCCCAUGAAGAGUGAGGCCACUAAGGAGAUGAGGAGCUCUUUAUAGAUAUCACGAGUGUACUUGGUAGAGGUGACCUCGUAAACCAACAGAGGAUUGAGCAUCA
B11: chr5:31194218:31194219:+_ENSMUSG00000029165_ENSMUST00000031057|mus_mus|FALSE|FALSE (ssRNA)
RNA: GGGAGUUCUACAGUCCGACGAUCUAGAUCUACACGAAGUCCAUCCAGAGAAUAGCAGAGAAGCUCUCGGUGGUAAUAAAUACUAUCCAGAGGACUGCUAUGGGUAGAGUAAUUCUCUGAAAAGCGCUGGUCUAGCUGGCUCAGCAACAGAGGAUUGAGCAUCA
B12: chr3:148802587:148802588:-_ENSG00000071794_ENST00000310053|hu_mus|hu_hu_hu_mus_False|58_68 (ssRNA)
RNA: GGGAGUUCUACAGUCCGACGAUCUCCAACAACUUGUCCUCUCAUAGUUCCAAAUAAAACCAAAUCUACUUCUUCAUCACUAGUUAGGAAGUCAUCUGGAGGAAUAAUGUCUUGGAAUUCAAAAUGUGGCAAGAAAGUUGAGUACAACAGAGGAUUGAGCAUCA
B13: chr14:55818557:55818558:+_ENSG00000178974_ENST00000313833|hu_mus|FALSE|FALSE (ssRNA)
RNA: GGGAGUUCUACAGUCCGACGAUCUGCUGGGUGUUCCCUCAGCUGGGGGUGCGCUUGCUGGUCCUGUCCAGAUGACAGAAAGAAGAGCAUCCCGGGAAGAGGCUCCUCAAGGGAGUCUAAAGCCGCCGGCCGGUCUUUCUCUACCAACAGAGGAUUGAGCAUCA
B14: chr4:115894766:115894767:+_ENSMUSG00000028698_ENSMUST00000030464|mus_hu|mus_mus_mus_hu_True|38_108 (ssRNA)
RNA: GGGAGUUCUACAGUCCGACGAUCUUCACACGGAAAUUGUACUUCGGGUUUUCCAACGGCCAGUACCAGUCCGGCCAAACUACCCGAACAGGGUCCUGUCCUCCUCUCCUACAGAACACAACAAAAUGCCCCCGAACUUUCAAGCAACAGAGGAUUGAGCAUCA
B15: chr5:128440902:128440903:+_ENSG00000066583_ENST00000173527|hu_mus|hu_hu_hu_mus_True|8_48 (ssRNA)
RNA: GGGAGUUCUACAGUCCGACGAUCUUGAACGGUGCUGCCAAGUCCUUUGGGGUAUUGUUCCGUUAUGAUAACUGGAAUCCCUAAGAUCCGGGCCCCUUGCAACAGUCUCUGUCCCACACUAAUGAUGUCCCCAAAAUAUUUGAUCAACAGAGGAUUGAGCAUCA
B16: chr1:39494447:39494448:+_ENSG00000168653_ENST00000372967|hu_mus|hu_hu_hu_mus_False|28_98 (ssRNA)
RNA: GGGAGUUCUACAGUCCGACGAUCGCACCGAGCGGCGAUCUUGUAGGGCUGUUCUGCGCUUAGGAACAUAAAGUGCCGGUCCAGGCUGAUGCCCAGCUUUUUCUGUAUGUCCAAGAAAGGCAUGGCUCUGCAGUGCCCUUGUCACAACAGAGGAUUGAGCAUCA
B17: chr12:93870747:93870748:+_ENSG00000198015_ENST00000552217|hu_hu|FALSE|FALSE (ssRNA)
RNA: GGGAGUUCUACAGUCCGACGAUCCUCUACGUUGCAAUUAUAGUCAUCUGGUAGAGGAGAAUACGUAGAUUUAUGACAAACACAAUAUAAAGCUCCAUUUUGGACUGGAAAUAAAUGUUUCAAGAUAGUUCUCUUUGACAUCACCAACAGAGGAUUGAGCAUCA
B18: chr13:100200933:100200934:-_ENSMUSG00000052727_ENSMUST00000064762|mus_mus|FALSE|FALSE (ssRNA)
RNA: GGGAGUUCUACAGUCCGACGAUCAGACGCAAGUGAGGCAUAUAAGGACAUCUCUCUGGGAGGAACAACAUCAGAGAGAGUGUCUUCCUGAAGAGGAGAGGCUAUCUGAGAAGGGGUGUGAGCUGAAGAGGUGGACGGGGAAGCCAACAGAGGAUUGAGCAUCA
B19: chr7:131071926:131071927:+_ENSG00000128585_ENST00000352689|hu_mus|FALSE|FALSE (ssRNA)
RNA: GGGAGUUCUACAGUCCGACGAUCUUUCUUCAAAUUGCAGACAUGAGUUUUCUCAUAUUUUCCAAAUGUAAUAUUCUGAACGAUAGCAGGCCUUUCAAGCUUCAGAAUCAAGUAUUGGGGAGGAUAGUUGCUCUCUGAAGACCACAACAGAGGAUUGAGCAUCA
B20: 51246821_51246941_3074_3pUTR_ENSMUSG00000021395_ENSMUST00000095797|mouse|control|control (ssRNA)
RNA: GGGAGUUCUACAGUCCGACGAUCCAACAUUCAGAUACCAGAACAAUGCAAGCAAUGCAUGCAGAUCUGAACUGUGAGCCUAAGGGAAGUCCAAGGUGGCAGGCCCAGGAGUCUGUCACCAUUAAGGGUGGUGGAAGCCACCAACAACAGAGGAUUGAGCAUCA
B21: chr4:115894766:115894767:+_ENSMUSG00000028698_ENSMUST00000030464|mus_hu|mus_mus_mus_hu_True|8_48 (ssRNA)
RNA: GGGAGUUCUACAGUCCGACGAUCUUCCACACGGAAAUGUACUUCGGGUUUUCCAACGGCCAGUACCAGUCCGGCCAAACUACCCGAUGAGGACAAGCCCCCUCUCUCCUACAGAACACAACAAAAUAACAAAAUACUUUCAAGCAACAGAGGAUUGAGCAUCA
B22: chr7:141438946:141438947:+_ENSG00000106028_ENST00000265304|hu_mus|hu_hu_hu_mus_True|1_88 (ssRNA)
RNA: GGGAGUUCUACAGUCCGACGAUCGACGAAAUACCUGUAACACAGGUGAAACAUGGCUGGCUUCUGUUUUUCUUACAACCUAAUCUUUAGGCUUUUCCUAAAGGAAAGAAAGAAAAGAGAAAAAUGAUAAAUCAAGAACUUCCGCAACAGAGGAUUGAGCAUCA

Target: T1, UNK ZnF1-3
Experiment: nsRBNS (natural sequence RNA bind-n-seq); RBNS binding buffer (assumed for nsRBNS): 25 mM Tris pH 7.5, 150 mM KCl, 3 mM MgCl2, 0.01% Triton X-100, 500 ug/ml BSA, 20 U/ml SUPERase-In, 4 C; UNK is unkempt and MSI1 is Musashi-1; names of the RNAs are library labels; protein concentration not given here; high values mean tight binding

Going from B1 to B2, the binding signal falls from 1.72 enrichment R to 0.965 enrichment R.

Going from B3 to B4, the binding signal rises from 1.89 enrichment R to 2.99 enrichment R.

Going from B5 to B6, the binding signal rises from 0.941 enrichment R to 1.62 enrichment R.

First: B7
Second: B8
The binding signal of the first is lower: 0.869 enrichment R for the first, 0.93 enrichment R for the second.

First: B9
Second: B10
The binding signal of the first is lower: 0.73 enrichment R for the first, 2.72 enrichment R for the second.

First: B11
Second: B12
The binding signal of the first is higher: 1.27 enrichment R for the first, 1.21 enrichment R for the second.

First: B13
Second: B14
The binding signal of the first is higher: 0.902 enrichment R for the first, 0.821 enrichment R for the second.

First: B15
Second: B16
The binding signal of the first is higher: 0.878 enrichment R for the first, 0.573 enrichment R for the second.

Compared with B17, B18 is higher in binding signal: 0.837 enrichment R for the first, 2.79 enrichment R for the second.

Compared with B19, B20 is lower in binding signal: 1.15 enrichment R for the first, 0.813 enrichment R for the second.

First: B21
Second: B22
The binding signal of the first is lower: 0.89 enrichment R for the first, 1 enrichment R for the second.
